The campaign covered roughly 310,000 compounds. About 2,200 (0.71%) showed an effect of 50% or more. Effects have a minus sign here. The list shows a part of the results.
What follows are compounds tested against human ether-à-go-go-related gene (hERG) potassium channel (human, UniProt Q12809) (assay: primary screen, population patch clamp on CHO cells stably expressing hERG).
Chain of human ether-à-go-go-related gene (hERG) potassium channel (Q12809 whole entry, looked up): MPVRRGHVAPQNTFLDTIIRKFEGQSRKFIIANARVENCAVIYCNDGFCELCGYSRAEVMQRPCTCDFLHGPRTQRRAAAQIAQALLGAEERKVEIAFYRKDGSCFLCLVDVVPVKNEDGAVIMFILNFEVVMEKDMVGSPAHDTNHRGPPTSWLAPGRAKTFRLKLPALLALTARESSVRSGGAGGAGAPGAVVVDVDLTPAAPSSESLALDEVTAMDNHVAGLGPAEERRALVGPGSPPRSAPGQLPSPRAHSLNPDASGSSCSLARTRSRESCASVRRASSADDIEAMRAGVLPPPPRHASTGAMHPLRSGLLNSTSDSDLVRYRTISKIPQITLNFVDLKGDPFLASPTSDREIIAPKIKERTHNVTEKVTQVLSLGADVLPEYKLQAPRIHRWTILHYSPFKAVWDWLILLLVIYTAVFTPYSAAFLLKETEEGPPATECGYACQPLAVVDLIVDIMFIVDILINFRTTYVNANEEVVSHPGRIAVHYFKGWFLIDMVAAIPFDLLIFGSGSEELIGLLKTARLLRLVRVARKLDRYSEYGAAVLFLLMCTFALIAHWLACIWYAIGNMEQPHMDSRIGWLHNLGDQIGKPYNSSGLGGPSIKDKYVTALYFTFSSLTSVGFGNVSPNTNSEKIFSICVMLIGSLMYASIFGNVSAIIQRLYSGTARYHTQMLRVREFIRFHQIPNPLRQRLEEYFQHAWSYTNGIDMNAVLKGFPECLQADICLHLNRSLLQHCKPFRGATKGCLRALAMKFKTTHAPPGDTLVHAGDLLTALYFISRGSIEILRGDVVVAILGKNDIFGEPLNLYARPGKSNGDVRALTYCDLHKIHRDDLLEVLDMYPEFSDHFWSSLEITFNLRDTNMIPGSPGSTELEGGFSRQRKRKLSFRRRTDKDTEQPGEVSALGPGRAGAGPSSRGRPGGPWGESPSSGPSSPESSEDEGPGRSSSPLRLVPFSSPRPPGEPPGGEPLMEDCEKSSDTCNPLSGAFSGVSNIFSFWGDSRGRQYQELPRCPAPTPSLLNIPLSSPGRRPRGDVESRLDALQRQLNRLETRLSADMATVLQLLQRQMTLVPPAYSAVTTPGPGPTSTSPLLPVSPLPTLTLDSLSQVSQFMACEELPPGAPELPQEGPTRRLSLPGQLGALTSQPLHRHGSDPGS

Structure (SMILES)	hERG current change (%, negative = inhibition) at 1uM [%]
CCC(C)[C@H](NS(=O)(=O)c1ccc(C)cc1)C(=O)N1CCC(C(=O)N[C@H](C(=O)O)c2ccccc2)CC1 (stereo partly drawn)	15.3
Cc1ccc2c(CN3CCN(Cc4ccc5c(c4)OCO5)CC3)cc(=O)oc2c1C	-4.32
Cc1cccc(NC(=O)CSc2ccc(-c3ccccn3)nn2)c1C	4.19
CCN(c1cccc2ccccc12)S(=O)(=O)c1ccc(Cl)nc1	3.11
O=C(NNc1cccc(Cl)n1)Nc1ccccc1	5.01
COCCn1c(C)cc(/C=C2/NC(=O)N(c3ccc(Cl)cc3)C2=O)c1C	7.62
Cc1ccc(CNC(=O)CCS(=O)(=O)c2ccc3c(c2)oc(=O)n3C)cc1	10.7
CCOc1ccc(/C=C2\CCc3ccccc3C2=O)cc1	15
COC1CCCCC1NCCc1ccccc1.O=C(O)C(=O)O (stereo not drawn)	5.61
Cc1ccc(S(=O)(=O)Nc2nc3ccccc3nc2Nc2cccc(S(=O)(=O)N3CCCC3)c2)cc1	9.48
CC1(c2cc([N+](=O)[O-])cc([N+](=O)[O-])c2)CC(C)(C)N(C(=O)c2ccccc2)c2ccccc21 (stereo not drawn)	13.4
CCCCn1c(N)c(N(CCC(C)C)C(=O)c2ccc3c(c2)OCO3)c(=O)[nH]c1=O	7.09
CCc1ccc(NC(=O)C2CCN(c3c(N4CCCC4)c(=O)c3=O)CC2)cc1	12.6
O=C(NCCN1CCCCCC1)c1ccc(CS(=O)(=O)c2ccc(Br)cc2)o1	-37.9
COc1ccc(/C=C(\C#N)C(=O)Nc2cc(C)c(Cl)cc2OC)cc1O	8.51
O=C1CN(C(=O)c2ccccn2)c2ccccc2N1	7.97
O=c1[nH]c2ccccc2n2cnnc12	17.8
CCCN(CCC)c1ccc(/C=C/c2ccc3cc(OCC)ccc3n2)cc1	4.1
CN1C(=O)C2C3c4ccccc4C(c4ccccc43)[C@@H]2C1=O (stereo partly drawn)	16.8
O=C1NC(=S)SC1=C1CCCCCC1	16.8
CCCS(=O)(=O)c1c(S(=O)(=O)CCC)c2cc(-c3ccncc3)ccn2c1C(=O)OC	-5.09
CCOc1ccc(N(CC(=O)NC2CCCCCC2)S(=O)(=O)c2ccccc2)cc1	-0.342

Structure (SMILES)	hERG current change (%, negative = inhibition) at 1uM [%]
CCc1nc2sc3c(=O)n(N)cnc3c2c2c1COC(C)(C)C2	0.818
CCOc1ccc(CNC(=O)CCS(=O)(=O)c2ccc3c(c2)oc(=O)n3C)cc1	18.2
Cc1ccc(N=Cc2ccc[nH]2)c(O)c1	5.96
Cc1ccc(S(=O)(=O)N2CCN(C(=O)CN3C(=O)CNC3=O)CC2)cc1	7.34
O=C1/C(=C/c2cccnc2)SC(=S)N1N1CCOCC1	5.27
O=c1c2ccccc2oc2nc3n(c(=O)c12)CCCS3	12.9
O=C(CSc1cn(CCNC(=O)c2cccs2)c2ccccc12)NC1CCCCC1	8.93
COc1ccc(OC)c(-c2cc(C(=O)NCCN3CCOCC3)no2)c1	0.562
CCn1c(SCC(=O)NNC(=O)c2ccc(C)cc2)nnc1-c1ccncc1	-0.145
CCn1c(SCc2nc3sc(C(=O)O)c(C)c3c(=O)[nH]2)nnc1-c1ccc(Cl)cc1	7.84
O=C(C1CCCN(c2ncccn2)C1)N1CCc2ccccc21 (stereo not drawn)	-1.63
CC(=O)c1ccc(N2CCN(c3ncccn3)CC2)c([N+](=O)[O-])c1	4.76
Cc1cccc(NS(=O)(=O)c2ccc(C)c(C(=O)NCc3ccncc3)c2)c1	11
O=C(Nc1ccccc1)NC1CCN(Cc2ccccc2)CC1	-0.178
Cc1occc(=O)c1OC(=O)Nc1ccc(Cl)c(Cl)c1	12.6
COC(=O)C[C@H]1c2cc(C(F)(F)F)ccc2S(=O)(=O)N1C1CCCCC1	15.4
Cn1c(SCc2ccc([N+](=O)[O-])cc2)nnc1-c1ccncc1	-11.3
O=C(Cn1cnc2cc([N+](=O)[O-])ccc2c1=O)Nc1ccc(N2CCOCC2)cc1	4.05
COc1cc(CC(NC(C)=O)C(=O)NC2CCN(C(=O)c3cc(OC)c(OC)c(OC)c3)CC2)cc(OC)c1 (stereo not drawn)	-6.17
CC(C)NS(=O)(=O)c1ccc(CCC(=O)Nc2cc(Cl)ccc2Oc2ccccc2)cc1	12.3
O=C(NS(=O)(=O)c1ccc(Cl)s1)c1ccccc1	15.1
CCOc1ccc(C(C)=O)cc1COC(=O)c1ccc2c(c1)NC(=O)CS2	2.77

Structure (SMILES)	hERG current change (%, negative = inhibition) at 1uM [%]
COC(=O)Nc1ccc(S(=O)(=O)N2CCCCCC2)cc1	9.77
O=C(CCCN1C(=O)/C(=C/c2ccccc2Cl)SC1=S)Nc1ccccn1	4.44
O=C1NC(c2ccccc2)(C(F)(F)F)C(=O)N1Cc1cccnc1 (stereo not drawn)	12.6
NC(=O)CC(NC(=O)Cc1ccc(Br)cc1)c1ccc(NC2CC3CCC2C3)c([N+](=O)[O-])c1 (stereo not drawn)	6.11
Cc1cc(C)nc(N=Nc2c(O)n(Cc3ccc(Cl)cc3)c3ccccc23)n1	11
CCN1C=CC(=C2C(=O)c3ccccc3C2=O)C=C1	-1.78
CCCCNC(=O)CCCCC(=O)N/N=C/c1ccccc1Cl	8.47
COc1c(Cl)cc(Cl)cc1CNc1ccc(S(N)(=O)=O)cc1	15.7
CCn1c(SCC(=O)N/N=C/c2c[nH]c3ccccc23)nnc1-c1ccc(C(C)(C)C)cc1	9.49
COC(=O)CSc1nnc(CNC(=O)c2ccccc2F)n1-c1ccccc1	8.18
COc1ccc(OC)c(/C=N/NC(=O)c2ccc3nc[nH]c3c2)c1	16
CCCC(c1nnnn1Cc1ccco1)N1CCN(c2cc(Cl)ccc2C)CC1.Cl (stereo not drawn)	2.96
O=S(=O)(/C=C/c1ccccc1)N1CCc2ccccc2C1	17.5
CN(C(=O)COC(=O)CCC(=O)c1ccc(Cl)cc1)c1c(N)n(Cc2ccccc2)c(=O)[nH]c1=O	-8.88
CC1=CCC2C(=O)N(c3ccc(C)cc3)C(=O)C2C1 (stereo not drawn)	4.21
Cc1cc(C)n(CC(C)NCc2cn[nH]c2-c2cccc3ccccc23)n1 (stereo not drawn)	5.94
Cc1c(NC(=O)c2ccccc2NC(=O)COc2ccccc2)cccc1C(=O)O	9.33
Cc1cc2occ(CC(=O)N(CCC(C)C)c3c(N)n(Cc4ccccc4)c(=O)[nH]c3=O)c2cc1C	6.09
CCOC(=O)c1c(NC(=O)CSc2nnc(-c3ccco3)o2)sc(C)c1C	-10.8
Brc1ccc(C2=CSC3=NCCN23)cc1	1.52
COc1ccc2oc(C(=O)OCC(=O)N3CCC(C)CC3)c(C)c2c1	9.44
Cc1ccc(OCCCCCCN2CCNCC2)c(Br)c1.O=C(O)C(=O)O	9.04

Structure (SMILES)	hERG current change (%, negative = inhibition) at 1uM [%]
CCCn1c(SCC(=O)NC2CCCCC2)nnc1-c1ccncc1	7.5
CSc1ccc(S(=O)(=O)Nc2ccc(NC(C)=O)cc2)cc1	-0.665
CCc1ccc2[nH]c(=O)c(CN(CCCO)C(=O)NCc3ccccc3)cc2c1	0.119
COCCCn1c(=O)c2sccc2n2c(CCCC(=O)NCC3CCCO3)nnc12 (stereo not drawn)	14
CN1CCN(CC(=O)C23CC4CC(CC(C4)C2)C3)CC1.Cl	9.42
Cc1[nH]c2ccccc2c1-c1nc2ccccc2[nH]c1=O	16.1
CCOC(=O)c1ccc2nc(NC(=O)c3ccco3)sc2c1	11
COC(=O)[C@H](c1ccccc1Cl)N1CCc2sccc2C1	17.4
O=C(N/N=C/c1ccco1)C1COc2ccccc2O1 (stereo not drawn)	4.37
Cn1ncc(Cl)c1C(=O)N1CCN(C23CC4CC(CC(C4)C2)C3)CC1	8.39
COc1ccc(N2C(=NC(=O)CC3CCCCC3)SC3CS(=O)(=O)CC32)cc1 (stereo not drawn)	6.18
CN(Cc1ccccc1)C(=O)c1ncn(Cc2ccccc2)c1C(=O)N(C)Cc1ccccc1	5.53
Cc1nc2ccc(S(=O)(=O)NCC(=O)N(C)Cc3ccccc3)cc2s1	13.6
CCS(=O)(=O)NC(C)c1nnc2n1-c1ccc(Br)cc1C(c1ccccc1Cl)=NC2 (stereo not drawn)	-4.22
Cc1nnc(NC(=O)C2CCCO2)s1 (stereo not drawn)	5.67
CCC(Sc1nc(N)c(NC(=O)c2ccc(Br)o2)c(=O)[nH]1)C(=O)O (stereo not drawn)	7.26
CC1=NNC(=O)C1Cc1ccccc1C (stereo not drawn)	13.9
Cc1cc(C)cc(NC(=O)CSc2nc3ccccc3nc2N2CCCC2)c1	-20.3
COc1ccc(C2CC(c3ccccc3)=NN2C(=O)COC(=O)c2nc3nc(C)cc(C)n3n2)cc1 (stereo not drawn)	9.71
C(=N\Nc1nc(-c2ccccc2)cs1)/c1ccco1	-1.52
NC(=O)N(N)c1nc(N2CCCC2)nc(N2CCCC2)n1	6.1
